Source: the supplement of paper PMC12889115
Some of the results follow. No stated cut-off is given here; in the data, active = 25% or less and inactive = the rest. Most values come without repeats; read them as rough.

Tests used:
[1] = system: Salmonella enterica serovar Typhimurium SL1344; experiment: bacterial growth OD600 after 18 h in MHB with 0.5 µg/mL polymyxin B; higher = more bacterial growth (less inhibition); details: 25 µM; polymyxin B 0.5 µg/mL; system: broth
Experimental: (§1)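 Secondary screen of the 553 primary hits at 25 µM. (i) S. Typhimurium SL1344 grown in Mueller-Hinton broth with 0.5 µg/mL polymyxin B, OD600 read after 18 h. (ii) SAFIRE assay: RAW 264.7 macrophages infected with S. Typhimurium sifB::gfp (MOI 30); compound added 2 h post-infection; cells fixed at 18 h; GFP-positive pixel fraction per macrophage imaged by confocal microscopy and expressed as % of DMSO control.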

[2] = system: Salmonella enterica serovar Typhimurium SL1344; experiment: intramacrophage bacterial GFP load (SAFIRE), percent of DMSO control (% of DMSO); higher = more intracellular bacteria (less inhibition); details: 25 µM; system: infected RAW 264.7 macrophages
Experimental: as §1
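Wherever bacterial growth OD600 after 18 h in MHB with 0.5 µg/mL polymyxin B is given: polymyxin B level opens the outer membrane while sparing the inner membrane, with novobiocin wells as reference growth inhibitor.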
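Wherever intramacrophage bacterial GFP load (SAFIRE), percent of DMSO control is given: compounds tested were the hits of an earlier 50 µM broth growth screen of a drug-like diversity library run with polymyxin B.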

Compound: O=C(c1cc(COc2ccc3c(c2)CCCC3)on1)N1CCN(C2CCCC2)C(=O)C1
- bacterial growth OD600 [1]: 0
- intramacrophage bacterial GFP load [2]: inactive: 128

Compound: CCOC(=O)C1(Cc2ccccc2C(F)(F)F)CCN(Cc2cnc(C)s2)CC1
- bacterial growth OD600 [1]: 0.004
- intramacrophage bacterial GFP load [2]: active: 7.71

Compound: O=C(c1coc(Cn2cnc3ccccc32)n1)N1CCC(C2CCCCC2)C1 (stereo not given)
- bacterial growth OD600 [1]: 0.004
- intramacrophage bacterial GFP load [2]: inactive: 40.3

Compound: Cc1cccc(CNCC2(O)CCCN(CC3CC3)C2=O)n1 (stereo not given)
- bacterial growth OD600 [1]: 0.637
- intramacrophage bacterial GFP load [2]: inactive: 99

Compound: CCOC(=O)C1(Cc2ccccc2F)CCCN(C(=O)c2c(C)nc3sccn23)C1 (stereo not given)
- bacterial growth OD600 [1]: 0.535
- intramacrophage bacterial GFP load [2]: inactive: 85.8
